Reference: PMC4336329 (PLoS ONE, 2015)
In all, about 310,000 compounds went through this assay and about 14,000 (4.5%) showed an effect of 50% or more. The effect is printed as a negative number. Some of the results follow.
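Note: peak tail current of the secondary pulse compared with the same well before compound.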

Each compound was assayed against human ether-à-go-go-related gene (hERG) potassium channel (human, UniProt Q12809) (assay: primary screen, population patch clamp on CHO cells stably expressing hERG).
Sequence of human ether-à-go-go-related gene (hERG) potassium channel (Q12809 whole entry, looked up): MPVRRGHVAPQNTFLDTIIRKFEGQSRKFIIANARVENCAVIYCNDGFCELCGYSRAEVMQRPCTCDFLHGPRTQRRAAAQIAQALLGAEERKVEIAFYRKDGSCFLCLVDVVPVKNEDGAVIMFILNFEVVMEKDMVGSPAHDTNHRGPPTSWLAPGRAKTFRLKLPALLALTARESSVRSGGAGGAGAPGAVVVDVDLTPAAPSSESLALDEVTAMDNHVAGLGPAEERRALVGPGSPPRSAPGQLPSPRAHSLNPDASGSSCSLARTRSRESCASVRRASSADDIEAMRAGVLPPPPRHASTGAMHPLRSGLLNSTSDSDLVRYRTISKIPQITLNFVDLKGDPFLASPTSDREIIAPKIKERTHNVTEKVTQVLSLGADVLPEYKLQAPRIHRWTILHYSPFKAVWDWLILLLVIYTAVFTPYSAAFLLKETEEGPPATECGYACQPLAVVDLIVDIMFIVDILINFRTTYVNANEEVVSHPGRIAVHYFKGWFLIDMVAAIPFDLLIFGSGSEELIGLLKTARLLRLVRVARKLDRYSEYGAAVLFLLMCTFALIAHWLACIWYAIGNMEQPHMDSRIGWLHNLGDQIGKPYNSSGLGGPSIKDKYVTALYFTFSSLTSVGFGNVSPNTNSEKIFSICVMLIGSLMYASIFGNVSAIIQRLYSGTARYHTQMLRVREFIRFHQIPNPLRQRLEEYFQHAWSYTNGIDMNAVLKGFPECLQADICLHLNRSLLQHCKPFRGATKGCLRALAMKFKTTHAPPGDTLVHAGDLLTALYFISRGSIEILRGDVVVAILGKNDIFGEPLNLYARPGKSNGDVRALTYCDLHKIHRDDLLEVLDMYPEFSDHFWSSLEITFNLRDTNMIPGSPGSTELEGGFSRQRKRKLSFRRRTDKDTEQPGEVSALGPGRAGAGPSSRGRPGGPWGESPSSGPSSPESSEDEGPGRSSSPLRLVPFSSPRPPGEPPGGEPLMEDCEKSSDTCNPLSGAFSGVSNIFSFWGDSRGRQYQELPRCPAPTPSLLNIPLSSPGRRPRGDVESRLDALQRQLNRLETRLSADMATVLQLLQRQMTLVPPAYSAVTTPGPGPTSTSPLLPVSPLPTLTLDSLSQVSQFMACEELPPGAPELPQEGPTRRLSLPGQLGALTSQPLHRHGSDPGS
For `Cn1cccc1CNC(=O)Nc1ccccc1`, the “hERG current change (%, negative = inhibition) at 10uM” value was 1.33%. `CN(C)C1=NC[C@H](Cc2ccccc2)N1CC1CCCCC1` was tested, and the “hERG current change (%, negative = inhibition) at 10uM” value was -14.6%. In the case of `COc1ccc(OC)c(S(=O)(=O)N2CCC(C(=O)NCC3CCCO3)CC2)c1` (stereo not drawn), the “hERG current change (%, negative = inhibition) at 10uM” value is reported as -1.42%. In the case of `Cc1cc(O)c(C(C)C)cc1NC1=NS(=O)(=O)c2ccccc21`, the “hERG current change (%, negative = inhibition) at 10uM” value is reported as 1.25%. In the case of `COc1cccc(C2=NO[C@@H]3C(=O)N(c4ccc5c(c4)OCCO5)C(=O)[C@H]23)c1OC`, the “hERG current change (%, negative = inhibition) at 10uM” value is reported as 12.4%. `O=c1[nH]c(=S)n(-c2ccc(Cl)cc2)c(O)c1C=Nc1ccc(N2CCOCC2)cc1` was tested, and the “hERG current change (%, negative = inhibition) at 10uM” value was 18%. For `O=C(CCC(=O)N1CCOc2ccccc21)N1CCN(c2ccccc2)CC1`, the “hERG current change (%, negative = inhibition) at 10uM” value was -70%. For `OCCn1nc(-c2ccccc2)cc1-c1ccccc1`, the “hERG current change (%, negative = inhibition) at 10uM” value was -1.26%. In the case of `COc1ccc(C(=O)N[C@H](C(=O)NCc2ccco2)C(C)C)cc1`, the “hERG current change (%, negative = inhibition) at 10uM” value is reported as 9.15%. `COc1ccc(C(=O)CSc2nnc(CN3CCCCC3)n2-c2ccc(F)cc2)cc1` was tested, and the “hERG current change (%, negative = inhibition) at 10uM” value was -57.7%. `Cc1ccc(CC(=O)NC2CCN(C)CC2)cc1` was tested, and the “hERG current change (%, negative = inhibition) at 10uM” value was 7.64%. With `O=C(CSCc1ccccc1)N/N=C/c1ccccc1OCc1ccccc1` the “hERG current change (%, negative = inhibition) at 10uM” value was 4.14%. `CCC(NS(=O)(=O)c1ccc(C)cc1)C(=O)Nc1ccc(NC(C)=O)cc1` (stereo not drawn) was tested, and the “hERG current change (%, negative = inhibition) at 10uM” value was -11.6%. With `CCOc1ccccc1Oc1c(C)oc2c(CN3CCN(C)CC3)c(O)ccc2c1=O` the “hERG current change (%, negative = inhibition) at 10uM” value was -0.354%. `COc1cc(Sc2ccc(C)cc2)c(OC)cc1N.Cl` was tested, and the “hERG current change (%, negative = inhibition) at 10uM” value was -4.21%. For `O=C(C1=C[C@H](c2csc3ccccc23)C[C@H](OCc2ccc(CO)cc2)O1)N1CCN(Cc2ccccc2)CC1`, the “hERG current change (%, negative = inhibition) at 10uM” value was 17.4%. `CC(=O)OCCN(CCOC(C)=O)c1c(C)[nH]c(=O)[nH]c1=O` was tested, and the “hERG current change (%, negative = inhibition) at 10uM” value was 4.25%. `CC(=O)c1ccc2c(c1)C1C(Cl)C(Sc3ccccc3[N+](=O)[O-])CC1C(c1ccccc1[N+](=O)[O-])N2` (stereo not drawn) was tested, and the “hERG current change (%, negative = inhibition) at 10uM” value was 8.59%. With `COC(=O)c1ccc(NC(=O)COC(=O)CCC2CCCC2)cc1` the “hERG current change (%, negative = inhibition) at 10uM” value was 4.16%. With `[O-][n+]1c(/C=C/c2ccccc2)ccc2ccccc21` the “hERG current change (%, negative = inhibition) at 10uM” value was 19.3%. In the case of `CC/C=C/CC(=O)N[C@@H](c1ccccc1)[C@@H](O)C(=O)O[C@H]1C[C@@]2(O)[C@@H](OC(=O)c3ccccc3)C3[C@](C)(C(=O)[C@H](OC(C)=O)C(=C1C)C2(C)C)[C@@H](O)C[C@H]1OC[C@@]31OC(C)=O` (stereo partly drawn), the “hERG current change (%, negative = inhibition) at 10uM” value is reported as 3.73%. For `CCOc1ccc(C(=O)NCC(=O)N2CCN(c3ccccc3O)CC2)cc1`, the “hERG current change (%, negative = inhibition) at 10uM” value was 3.93%. In the case of `Cc1ccc(C)n1NC(=O)c1cccs1`, the “hERG current change (%, negative = inhibition) at 10uM” value is reported as 9.98%. `Cc1cscn1` was tested, and the “hERG current change (%, negative = inhibition) at 10uM” value was 3.15%. With `CCOc1cc(S(=O)(=O)n2ccc(C)n2)ccc1Br` the “hERG current change (%, negative = inhibition) at 10uM” value was 4.32%. With `COc1c(Cl)cnn(-c2ccccc2)c1=O` the “hERG current change (%, negative = inhibition) at 10uM” value was -28.5%. For `Cc1ccc(N2CC(C(=O)Nc3nnc(C)s3)CC2=O)cc1` (stereo not drawn), the “hERG current change (%, negative = inhibition) at 10uM” value was -4.86%. `CN1C(=O)c2cccc(N(C)C)c2C1=O` was tested, and the “hERG current change (%, negative = inhibition) at 10uM” value was 1.74%. With `N#CC1(Nc2cccc(Br)c2)C(=O)Nc2ccccc21` (stereo not drawn) the “hERG current change (%, negative = inhibition) at 10uM” value was 6.92%. `O=C1C=C(N2CCCCCC2)C(=O)N1c1ccc(Cl)cc1` was tested, and the “hERG current change (%, negative = inhibition) at 10uM” value was 1.47%. `Cc1nc2ccccc2c(=O)n1CCN1CCOCC1` was tested, and the “hERG current change (%, negative = inhibition) at 10uM” value was 4.18%. For `COCc1ccc(C(=O)NC2CCSc3ccccc32)cc1` (stereo not drawn), the “hERG current change (%, negative = inhibition) at 10uM” value was -6.95%. With `CCOc1ccc(CCNC(=O)c2nnn(CC(=O)Nc3ccc(OC)cc3)c2N)cc1OCC` the “hERG current change (%, negative = inhibition) at 10uM” value was 25%. In the case of `COc1ccc(C(C(=O)NCCC(C)C)N(CCO)C(=O)c2snc(C(N)=O)c2N)cc1` (stereo not drawn), the “hERG current change (%, negative = inhibition) at 10uM” value is reported as -1.26%. `CCOC(=O)C1CCN(C(=O)C2CCCN2S(=O)(=O)c2ccc(Cl)cc2)CC1` (stereo not drawn) was tested, and the “hERG current change (%, negative = inhibition) at 10uM” value was -46.2%. For `Cc1nc2ccccn2c1C(=O)N/N=C/c1ccccc1Cl`, the “hERG current change (%, negative = inhibition) at 10uM” value was -2.95%. For `CN(C)c1ccc(Nc2nc(-c3cccnc3)cs2)cc1`, the “hERG current change (%, negative = inhibition) at 10uM” value was 5.8%. With `CCOc1ccc(OCCC(=O)N(CCC(C)C)c2c(N)n(Cc3ccccc3)c(=O)[nH]c2=O)cc1` the “hERG current change (%, negative = inhibition) at 10uM” value was 14.4%. With `Nc1nc(-c2ccccc2)c(N=Nc2cccc3ccccc23)s1` the “hERG current change (%, negative = inhibition) at 10uM” value was -2.2%. With `O=C(NCCCc1nc2ccccc2[nH]1)c1ccco1` the “hERG current change (%, negative = inhibition) at 10uM” value was 16.9%. `O=[N+]([O-])c1cccc(-c2nn(-c3ccccc3)cc2CO)c1` was tested, and the “hERG current change (%, negative = inhibition) at 10uM” value was -23.9%. In the case of `C/C(=N\Nc1cc(N2CCOCC2)nc(C)n1)c1cccc([N+](=O)[O-])c1`, the “hERG current change (%, negative = inhibition) at 10uM” value is reported as -60.4%. `O=C1c2cccc3c([N+](=O)[O-])ccc(c23)C(=O)N1c1ccc(Cl)cn1` was tested, and the “hERG current change (%, negative = inhibition) at 10uM” value was 0.201%. `CCn1cc(C(=O)NP(=O)(Nc2ccc(C)cc2)Nc2ccc(C)cc2)c2ccccc21` was tested, and the “hERG current change (%, negative = inhibition) at 10uM” value was 20.3%. With `Cc1cccc(C(=O)Nc2scc(-c3ccc(Br)cc3)c2C(=O)O)c1` the “hERG current change (%, negative = inhibition) at 10uM” value was 30.4%.
